Results reported in PubChem BioAssay (NCI).
“And” between values parts separate entries of the source, which are not always exact repeats. Equal values may be shown once.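 Following 48 hours of exposure in 96-well plates, responses at five concentrations were used to interpolate endpoints linearly. GI50: concentration for 50% inhibition of growth. TGI: concentration producing complete growth inhibition.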

Test system: NCI-H322M lung
Assay: NCI tumour cell line growth inhibition, 48 h

Q: Which results are given for Fc1ccc(-c2c(-c3ccncc3)nc3n2CCS3)cc1?
A: GI50: > 25 µM; TGI: > 25 µM

Q: CSC12c3cc(C)n(-c4ccc([N+](=O)[O-])cc4)c3CC(C)(C)CN1C(=O)C2Oc1ccccc1 (stereo not drawn) was tested. Which TGI did it give?
A: The TGI was > 100 µM.

Q: For CC1(C)OC2C(CCP(=O)(O)O)OC(c3nc(C(N)=O)cs3)C2O1 (stereo not drawn), which TGI is on record?
A: Its TGI is > 100 µM.

Q: Which results are given for Cc1cnc2n1S(=O)(=O)c1cc(C(=O)Nc3cccc4nsnc34)c(Cl)cc1S2?
A: GI50: 13.4 µM; TGI: 26.6 µM

Q: For CN(C)C(C1=C(O)C(c2ccccc2)N(c2ccccc2)C1=O)N1CCOCC1 (stereo not drawn), which TGI is on record?
A: The TGI was > 10 µM.

Q: COc1cc(C2C(Cl)C(=O)N2NC(=O)Cc2ccccc2)cc(Br)c1O (stereo not drawn) was tested. Which TGI did it give?
A: The TGI was > 100 µM.

Q: How did the TGI turn out when COc1ccc(C(c2ccccc2)(c2ccc(OC)cc2)N2C(=O)NC3C(CCCCC(=O)NCCCCCCOP(OCCC#N)N(C(C)C)C(C)C)SCC32)cc1 (stereo not drawn) was run?
A: Its TGI is 30.1 µM.

Q: How did the TGI turn out when COC(COC(N)=O)C1=C(N2CC2)C(=O)C(C)=C(N2CC2)C1=O (stereo not drawn) was run?
A: Its TGI is 1.28 µM.

Q: Which TGI does the source give for COC1CCC(OS(C)(=O)=O)C(CO)O1 (stereo not drawn) here?
A: Its TGI is > 100 µM.

Q: For CC1=NN(c2nc(N)nc(CN3CCOCC3)n2)C(C)(C)C1, which TGI is on record?
A: The TGI was > 100 µM.

Q: Nc1nc(Cl)cc(NCC2(O)CCC2)n1 was tested. Which TGI did it give?
A: Its TGI is > 100 µM.

Q: O=c1nc2n3c4c(cccc4nc-2c(=O)[nH]1)CCC3 was tested. Which TGI did it give?
A: Its TGI is > 100 µM.

Q: Which TGI does the source give for N#C/C(=C\c1cc(O)cc(O)c1)C(N)=O here?
A: The TGI was > 100 µM.

Q: For CC1=C(C#N)C(=C(C#N)C#N)OC1(C)Cc1ccccc1 (stereo not drawn), which TGI is on record?
A: The TGI was > 100 µM.

Q: For CNC(=O)c1ccc(N2C(=S)N(c3cnc(C#N)c(C(F)(F)F)c3)C(=O)C23CCC3)cc1F, which GI50 is on record?
A: The GI50 was > 100 µM.

Q: And the TGI?
A: Its TGI is > 100 µM.

Q: Which TGI does the source give for N#Cc1ccc(C(O)C(F)(F)c2nc3ccccc3o2)cc1 (stereo not drawn) here?
A: Its TGI is > 100 µM.

Q: For COC(=O)[C@@H]1c2cc3c(c(O)c2[C@@H](OC2OC(C)C(OC)C(C)(OC)C2OC)C[C@]1(C)O)C(=O)c1c(O)cc2c(c1C3=O)O[C@H]1O[C@]2(C)[C@H](O)[C@@H](N(C)C)[C@@H]1O (stereo partly drawn), which TGI is on record?
A: The TGI was 0.449 µM and 0.355 µM.

Q: COc1ccc(C(=O)C(CN(C)C)CN(C)C)cc1 was tested. Which GI50 did it give?
A: The GI50 was 16.4 µM.

Q: What about the TGI of the same compound?
A: Its TGI is 32 µM.

Q: How did the GI50 turn out when COc1ccc(C2(Cl)c3ccccc3N(c3ccccc3)c3ccccc32)cc1 was run?
A: The GI50 was 0.294 µM.

Q: And the TGI?
A: Its TGI is 1.94 µM.

Q: NC1N=C(c2ccc(Cl)cc2)C2=C(N1)c1ccccc1CC2 (stereo not drawn) was tested. Which TGI did it give?
A: Its TGI is > 100 µM.

Q: Which GI50 does the source give for COc1ccccc1Nc1cc(O)c2c(=O)cc(-c3ccccc3)oc2c1 here?
A: The GI50 was 5.98 µM.

Q: What about the TGI of the same compound?
A: Its TGI is 27.4 µM.

Q: What does the source list for COc1ccc2c(c1)C(=O)c1c-2n(CCCN(C)C)c(=O)c2ccccc12?
A: GI50: 0.636 µM; TGI: 9.29 µM

Q: With Cc1c(-c2cnccn2)ssc1=S as the compound, how does the TGI read?
A: The TGI was > 72 µM.

Q: CN1C(=O)C2(C)SC1(c1ccccc1)C1C(=O)N(c3ccccc3)C(=O)C12 (stereo not drawn) was tested. Which TGI did it give?
A: Its TGI is > 100 µM.

Q: With CCOC(=O)Cc1csc(NC(NC(=O)OCC)(C(=O)OCC)C(F)(F)F)n1 (stereo not drawn) as the compound, how does the TGI read?
A: Its TGI is > 100 µM.

Q: With CNC(=O)C(C)NC(=O)C(Cc1ccccc1)NC(=O)c1ccccc1 (stereo not drawn) as the compound, how does the TGI read?
A: The TGI was > 100 µM.

Q: For CC(C)[N+]([O-])(CCCNc1c2ccccc2nc2cccc([N+](=O)[O-])c12)C(C)C, which TGI is on record?
A: The TGI was 1.52 µM.

Q: How did the GI50 turn out when Cc1onc(-c2ccccc2)c1C(=O)N/N=C/c1cc(Cl)cc(Cl)c1O was run?
A: Its GI50 is 1.95 µM.

Q: What about the TGI of the same compound?
A: The TGI was 31.5 µM.

Q: For O=C(CCC(=O)Nc1ccc(Cl)c(Cl)c1)Cc1nc2ccccc2o1, which TGI is on record?
A: The TGI was > 100 µM.

Q: CC(=O)OCCn1cnc2c(NCC=C(C)C)ncnc21 was tested. Which TGI did it give?
A: The TGI was > 100 µM.

Q: With O=c1ccc2ccc(OP(=O)(O)O)cc2o1 as the compound, how does the TGI read?
A: Its TGI is > 100 µM.

Q: Which TGI does the source give for Cc1[nH]c(=O)nc2nc3cc(Cl)cc(Cl)c3c(NC(C)(CO)CO)c12 here?
A: The TGI was > 100 µM.

Q: How did the TGI turn out when COc1cc(/C=C2\C(=O)N(C(=O)Cc3ccccc3)N=C2C)cc(OC)c1OC was run?
A: Its TGI is > 100 µM.

Q: For OC(CNc1ccnc2cc(Cl)ccc12)CNc1ccnc2cc(Cl)ccc12, which GI50 is on record?
A: The GI50 was 1.93 µM.

Q: What about the TGI of the same compound?
A: The TGI was 4.18 µM.

Q: Which TGI does the source give for C=CCN(c1cc(OC)c(NC(C)=O)cc1[N+](=O)[O-])S(C)(=O)=O here?
A: The TGI was > 100 µM.

Q: Oc1c(Br)cc(/C=C/c2ccnc(/C=C/c3cc(Br)c(O)c(Br)c3)c2)cc1Br was tested. Which TGI did it give?
A: The TGI was 83.9 µM.

Q: Which TGI does the source give for O=c1c2cc(-c3ccccc3)cnc2sn1-c1ccc(Br)cc1 here?
A: Its TGI is > 100 µM.

Q: With CC(/C=C/C(=O)NO)=C\C(C)C(=O)c1ccc(N(C)C)cc1 (stereo not drawn) as the compound, how does the TGI read?
A: The TGI was 13.2 µM.

Q: For CCOC(=O)C(C(=O)OCC)=C1SC(=Nc2ccccc2)C(=Nc2ccccc2)N1c1ccccc1, which TGI is on record?
A: The TGI was > 100 µM.

Q: What does the source list for O=c1oc2ccc(I)cc2c(=O)n1-c1ccc(Br)cc1F?
A: GI50: 0.441 µM; TGI: 7.59 µM

Q: For CSC1=N/C(=C\c2ccc(Cl)cc2)C(=O)N1CN1CCCCC1, which TGI is on record?
A: The TGI was > 100 µM.

Q: How did the TGI turn out when CN(CCS(=O)(=O)N1C(=O)C2CCCN2C(=O)[C@@H]1Cc1ccccc1)C(=O)OCc1ccccc1 (stereo partly drawn) was run?
A: Its TGI is > 100 µM.

Q: For OC1(C(Sc2cc(C(F)(F)F)cc(C(F)(F)F)c2)Sc2cc(C(F)(F)F)cc(C(F)(F)F)c2)C=CCCC1 (stereo not drawn), which TGI is on record?
A: The TGI was 19.6 µM.

Q: Cc1cc2nc(NCCN)n(Cc3ccc(F)c(Cl)c3)c2cc1C was tested. Which GI50 did it give?
A: Its GI50 is 10.8 µM.

Q: And the TGI?
A: The TGI was 23.5 µM.

Q: Which results are given for O=c1c2ccccc2sc2c(NCCCNCCO)nc3ccccc3c12?
A: GI50: 1.83 µM; TGI: 3.8 µM

Q: With COC(=O)CCC(=O)c1ccc2c(c1)CCC2 as the compound, how does the TGI read?
A: The TGI was > 100 µM.

Q: Which TGI does the source give for O=C(Nc1ccccc1)c1cc(S(=O)(=O)Nc2n[nH]c(=O)n2-c2ccccc2)c(S)cc1Cl here?
A: The TGI was > 100 µM.

Q: Which TGI does the source give for CSc1ccc2c(cc1=O)[C@@H](NC(=O)c1cccc([N+](=O)[O-])c1)CCc1cc(O)c(O)c(O)c1-2 here?
A: The TGI was 92.2 µM.

Q: How did the TGI turn out when O=C1C=C(Nc2ccc(Cl)cc2Cl)c2ccccc2C1=O was run?
A: Its TGI is > 100 µM.

Q: How did the GI50 turn out when CC1Cc2c(Cl)ncnc2N(C)c2ccc(Cl)cc21 (stereo not drawn) was run?
A: Its GI50 is 0.295 µM.

Q: And the TGI?
A: The TGI was > 100 µM.
